The values below come from PubChem BioAssay AID1745853 (National Center for Advancing Translational Sciences (NCATS), 2022).

Assay in all cases: Primary Screen for Target Class Profiling of Small Molecule Inhibitors of Methyltransferases
Assay [1] has as its target Glycine N-methyltransferase (Homo sapiens) (UniProt Q14749). The settings on record: purified enzyme, MTase-Glo SAH luminescence; measured here: GNMT inhibition; at 40 µM; stronger effect = lower value. The method in brief:
(§1)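 Each enzyme was reacted with SAM and its substrate, with compounds tested once at 40 uM; SAH formed was read by MTase-Glo luminescence.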

The target of assay [2] is Guanidinoacetate N-methyltransferase (Homo sapiens) (UniProt Q14353). The settings on record: purified enzyme, MTase-Glo SAH luminescence; measured here: GAMT inhibition; at 40 µM; stronger effect = lower value. The method in brief:
as §1

The target of assay [3] is Histamine N-methyltransferase (Homo sapiens) (UniProt P50135). The settings on record: purified enzyme, MTase-Glo SAH luminescence; measured here: HNMT inhibition; at 40 µM; stronger effect = lower value. The method in brief: as §1
Assay [4] concerns the target Nicotinamide N-methyltransferase (Homo sapiens) (UniProt P40261). Particulars: purified enzyme, MTase-Glo SAH luminescence; measured here: NNMT inhibition; at 40 µM; stronger effect = lower value. The method in brief:
as §1

Assay [5] addresses Phenylethanolamine N-methyltransferase (Homo sapiens) (UniProt P11086). Particulars: purified enzyme, MTase-Glo SAH luminescence; measured here: PNMT inhibition; at 40 µM; stronger effect = lower value. The method in brief:
as §1

The other results are listed elsewhere or left out. Shown are side measurements of this screen, not its main read-out; they come without a call.
% is set by controls: 0 for no effect and ±100 for the full control effect.

`O=c1cc(N2CCOCC2)oc2c(Nc3ccccn3)nccc12`: the activity change, negative = inhibition in assay [1] is -4.83%; in assay [2], -1.68%; in assay [3], -4.65%; in assay [4], -7.46%; in assay [5], -11.9%.

Regarding `Cc1ccc(CN2C(=O)c3cc4sccc4n3CC2(C)C(=O)NC2CCC(C)CC2)cc1` (stereo not given), the activity change, negative = inhibition is -1.15% in assay [1]; 4.4% in assay [2]; -1.16% in assay [3]; -2.4% in assay [4]; -4.86% in assay [5].

Consider `Cc1cccc(CN2C(=O)c3ccccc3CC2(C)C(=O)NCc2ccccc2)c1` (stereo not given), for which the activity change, negative = inhibition was 4.04% in assay [1]; 1.83% in assay [2]; 6.05% in assay [3]; -7.49% in assay [4]; 0.816% in assay [5].

Regarding `CC(C)CCN1C(=O)c2cc3occc3n2CC1(C)C(=O)NC1CCCCCC1` (stereo not given), the activity change, negative = inhibition in assay [1] was 4.06%; in assay [2], 0%; in assay [3] it was 7.89%; in assay [4], 4.34%; in assay [5], -0.385%.

Take `COc1ccccc1NC(=O)Cn1c(=O)c2ccccc2n2nnc(-c3ccccc3)c12`: the activity change, negative = inhibition in assay [1] was 2.95%; in assay [2], 0%; in assay [3], 1.36%; in assay [4] it was -1.84%; in assay [5], -1.59%.

Take `CC(C)CNC(=O)c1ccc2c(=O)n(C(C)C)c3nn(Cc4ccccc4F)c(=O)n3c2c1`: the activity change, negative = inhibition in assay [1] is -0.008%; in assay [2], 1.69%; in assay [3], 2.39%; in assay [4], -2.71%; in assay [5] it was -2.5%.

On to `O=C(c1ccccn1)N1CCC2(CNc3ccccc3[S+](=O)([O-])N2)C1` (stereo not given), for which the activity change, negative = inhibition in assay [1] is -2.02%; in assay [2] it was -5.29%; in assay [3] it was -2.59%; in assay [4] it was -6.57%; in assay [5], -7.33%.

`O=C(CCc1nnc2n(CCc3ccccc3)c(=O)c3ccccc3n12)NCCC1=CCCCC1`: the activity change, negative = inhibition in assay [1] was -6.47%; in assay [2], 7.13%; in assay [3] it was -0.416%; in assay [4], -8.65%; in assay [5], -5.16%.

As for `O=S(=O)(NCCn1c(-c2ccc(F)cc2)nc2ccccc21)c1cc(F)ccc1F`, the activity change, negative = inhibition in assay [1] was -0.919%; in assay [2], 0.396%; in assay [3] it was 1.42%; in assay [4], -8.99%; in assay [5], 5.48%.

`O=C1CCN(Cc2ccncc2)CCCC(C(=O)N2CCCC2)CCN1` (stereo not given): the activity change, negative = inhibition in assay [1] was -0.278%; in assay [2] it was -3.43%; in assay [3], 0.686%; in assay [4] it was -3.4%; in assay [5] it was 0.843%.

As for `COc1cccc(CNc2nc3c(-c4cccc(F)c4)nnn3c3ccccc23)c1`, the activity change, negative = inhibition in assay [1] is -1.83%; in assay [2], -3.41%; in assay [3] it was -8.66%; in assay [4] it was -17%; in assay [5], -10.2%.

For the compound `Cc1ccc(COC(=O)N2CC[C@@H](CNc3ncccn3)[C@@H](F)C2)cc1`, the activity change, negative = inhibition is -3.71% in assay [1]; -9.34% in assay [2]; -3.08% in assay [3]; -18% in assay [4]; -14.8% in assay [5].

For `CCCn1c(=O)c2ccc(C(=O)NC(C)CC)cc2n2c(SCC(=O)Nc3ccc(CC)cc3)nnc12` (stereo not given), the activity change, negative = inhibition in assay [1] was 4.1%; in assay [2], 0%; in assay [3] it was 7.25%; in assay [4] it was -4.69%; in assay [5] it was 4.99%.

As to `CCOC(=O)C1(CCOc2ccccc2)CCN(Cc2ccc(O)c(Cl)c2)CC1`, the activity change, negative = inhibition in assay [1] was -6.46%; in assay [2], -10.2%; in assay [3], -20.3%; in assay [4], -18.3%; in assay [5] it was -6.67%.

With `CCCn1nc(CNC(=O)Cc2ccc(F)cc2)c2ccccc21`, the activity change, negative = inhibition in assay [1] was -0.692%; in assay [2] it was 0.465%; in assay [3], -6.44%; in assay [4], -4.24%; in assay [5] it was -0.31%.

In the case of `COC[C@@H]1CN(C(=O)c2cc(OC)cc(OC)c2)C[C@H]1c1ccncc1`, the activity change, negative = inhibition in assay [1] was -0.826%; in assay [2], 3.54%; in assay [3], 1.71%; in assay [4] it was -1.97%; in assay [5], -8.75%.

Consider `COCc1cn2c(=O)n(C)cc(-c3ccnc(OC)c3)c2n1`, for which the activity change, negative = inhibition in assay [1] was -9.57%; in assay [2], 3.34%; in assay [3], -0.817%; in assay [4], -4.82%; in assay [5], 11.2%.

With `NC(=O)OCC(COC(N)=O)c1ccccc1`, the activity change, negative = inhibition was 2.66% in assay [1]; 7.69% in assay [2]; 4.43% in assay [3]; -4.55% in assay [4]; 7% in assay [5].

Turning to `CCOC(=O)CNC(=O)C1(C)Cn2c(ccc2-c2ccco2)C(=O)N1Cc1ccc2c(c1)OCO2` (stereo not given), the activity change, negative = inhibition was -6.55% in assay [1]; 0% in assay [2]; 3.13% in assay [3]; 0.583% in assay [4]; -0.904% in assay [5].

As for `CCC1c2ccc(C)n2CCN1C(=O)Nc1cc(Cl)ccc1OC` (stereo not given), the activity change, negative = inhibition was -9.33% in assay [1]; -1.54% in assay [2]; -7.45% in assay [3]; -12.5% in assay [4]; -10.9% in assay [5].

With `CCCCN1C(=O)c2cc(C(=O)NCCC)nn2CC1(C)C(=O)NC1CCCC1` (stereo not given), the activity change, negative = inhibition was found to be 9.86% in assay [1]; 1.32% in assay [2]; 8.08% in assay [3]; 7.12% in assay [4]; 8.7% in assay [5].

As to `O=C1CCC2(CCN(C(=O)c3ccoc3)CC2)CN1CC1CCCO1` (stereo not given), the activity change, negative = inhibition in assay [1] was -1.91%; in assay [2], -5.39%; in assay [3], 0.156%; in assay [4], -6.31%; in assay [5], -0.744%.

For the compound `COC(=O)c1ccc([C@@H]2Nc3c(C)cccc3[C@@H]3C=CC[C@@H]32)cc1`, the activity change, negative = inhibition was -9.35% in assay [1]; 0% in assay [2]; -5.2% in assay [3]; -10.6% in assay [4]; -9.49% in assay [5].

Consider `CN(Cc1cnn(-c2ccccc2)c1)Cc1cc2ccccc2[nH]c1=O`, for which the activity change, negative = inhibition in assay [1] was -6.45%; in assay [2] it was 3.04%; in assay [3], -3.48%; in assay [4] it was -6.6%; in assay [5] it was -3.08%.

For the compound `O=C(CC12CC3CC(CC(C3)C1)C2)Nc1cccc2nc(NCCNCCO)ccc12`, the activity change, negative = inhibition in assay [1] is -2.85%; in assay [2], 9.4%; in assay [3], -4.57%; in assay [4], -15.2%; in assay [5] it was 3.17%.

As for `COc1cccc(N2C(=O)c3cc4sccc4n3CC2(C)C(=O)NC2CCCCC2C)c1` (stereo not given), the activity change, negative = inhibition was -4.3% in assay [1]; 4.96% in assay [2]; -3.14% in assay [3]; -3.66% in assay [4]; -3.25% in assay [5].

As to `CCCc1nc(C(=O)N2CCC3(CCCNC3)C2)cs1` (stereo not given), the activity change, negative = inhibition in assay [1] was -1.69%; in assay [2] it was -2.58%; in assay [3], 0.407%; in assay [4], 0.557%; in assay [5], -4.24%.

For the compound `COc1ccc(C(=O)Cn2nc3n(C(C)C)c(=O)c4ccc(C(=O)NCC(C)C)cc4n3c2=O)cc1`, the activity change, negative = inhibition worked out at 3.94% in assay [1]; 3.46% in assay [2]; 7.1% in assay [3]; 2.28% in assay [4]; 5.79% in assay [5].

Take `COc1cc(O)c2c(c1)C1=CC(O)C(O)CC1(C)OC2=O` (stereo not given): the activity change, negative = inhibition in assay [1] is -1.91%; in assay [2], 0.82%; in assay [3], 4.04%; in assay [4] it was -12.1%; in assay [5] it was -6.01%.

As for `CC1(C(=O)NC2CCCC2)Cn2c(ccc2-c2ccco2)C(=O)N1Cc1ccccc1Br` (stereo not given), the activity change, negative = inhibition is -3.97% in assay [1]; 3.6% in assay [2]; 2.92% in assay [3]; -6.03% in assay [4]; -3.63% in assay [5].
